Results published in the supplement of paper PMC10338343.
± gives the standard deviation. The entries are a selection whose mix differs from that of the whole data set.

system: MIWI (PIWIL1) piRISC loaded with L1MC piRNA (30 nt); assay: pre-steady-state target cleavage rate (min^-1); MIWI and MILI are mouse PIWI proteins and EfPiwi is from a freshwater sponge; tags in brackets are library labels; higher = faster piRNA-guided slicing of the target; conditions: guide: L1MC piRNA 5'p-UAACUAAAUACUAUGCAAGCUGUAGGUCCU; auxiliary factor: none (no GTSF1)
Summary of the method: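 Active affinity-purified piRISC (1 nM) loaded with one synthetic guide was mixed with a transcribed, DNA-blocked target RNA library (0.1 nM), with or without 500 nM GTSF1 partner protein, in HEPES–potassium acetate buffer at 33 °C for 0–8 or 0–960 min. Uncleaved targets were sequenced, normalised to depth and to weakly complementary targets, and pooled across three trials, with k3 capped at 0.0001 min^-1. The pre-steady-state cleavage rate was determined with a burst-and-steady-state fit.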

| Sequence | pre-steady-state target cleavage rate |
| --- | --- |
| UCGACCUACGCUUGCAUAGUAUUUAGUUA | 0.0463 ± 0.0093 |
| UCCUGGAUGUCGAUGGAUAGUAUUAAGUUA | < 0.0001 |
| UCCUGGAUGUCGAACGUUAGUAUUUAUUA | < 0.0001 |
| UCCUGGAUGUCGAACGAUAGUAUUUUAGUUA | < 0.0001 |
| UCCUGGAUGUCGAACGAUAGUAUAAAGUUA | < 0.0001 |
